Data published in PubChem BioAssay AID686971 (National Center for Advancing Translational Sciences (NCATS), 2013).
Among all 360,000 compounds or so, about 7,500 (2.1%) were called active. Inconclusive results, whose numbers are uncertain, are shown with a selection of clear calls. The call rests on the fitted dose curve; in most records, active means well fitted cell-killing curve with a large enough effect; inconclusive means small, poorly fitted or top-dose-only effect, or effect the other way, or another doubt; inactive means no such curve, though single readings can be large or run the other way. Potencies of inconclusive entries are left out as doubtful fits.
Potency means the concentration at half of the fitted maximal effect; tags describe the fitted curve by direction and shape.

Experiment: qHTS for induction of synthetic lethality in tumor cells producing 2HG: qHTS for the HT-1080-IDH1KD cell line;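 on activity, negative = toxicity: 0% = DMSO wells and -100% = cell-free medium wells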
Conditions: HT-1080 IDH1 knockdown viability, ATP luminescence, 48 h; activity, negative = toxicity: at 46.1 µM (top of the series) unless noted
How it was run: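 Luminescent ATP read-out (CellTiter-Glo, 10 min at room temperature) after 48 h compound exposure at 37 °C gave viability of IDH1-knockdown HT-1080 cells. Activity was normalised to DMSO and cell-free wells, then fitted as concentration-response curves.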
In the case of `COc1ccc(-n2c(CNC(=O)c3cc(OC)c(OC)c(OC)c3)n[nH]c2=S)cc1`, the Potency is reported as “inactive”.
In the case of `Cc1sc(NC(=O)c2ccco2)c(CN2CCN(Cc3ccccc3)CC2)c1C`, the Potency is reported as inconclusive [cytotoxic, single point].
In the case of `Cc1ccc(-c2nc3ccc(C)cn3c2Cc2cccc(Cl)c2)cc1`, the Potency is reported as inconclusive [cytotoxic, single point].
With `O=C(CNC(=O)c1ccc(S(=O)(=O)N2CCCC2)cc1)N/N=C/c1ccc(Cl)cc1Cl` the Potency was inconclusive [cytotoxic, single point].
In the case of `Cc1ccc([C@H]2C[C@@H](O)[C@H](n3cc(-c4ccc(F)cc4)nn3)CN2C(=O)C2CCCCC2)cc1`, the Potency is reported as “inactive”.
With `C/C(=N\NC(=O)COc1ccccc1[N+](=O)[O-])c1cccs1` the activity, negative = toxicity was inconclusive: 14.4%.
With `COC1C(CO)OC(n2c3c(Cl)cccc3c3c4c(c5c6cccc(Cl)c6[nH]c5c32)C(=O)NC4=O)C(O)C1O` (stereo not drawn) the Potency was active: 5.8 µM.
In the case of `c1ccc2c(c1)NC(c1ccncc1)n1c-2nc2ccccc21` (stereo not drawn), the Potency is reported as inconclusive [cytotoxic, single point].
For `Cc1[nH]nc(-c2ccc(OCc3cnn(-c4ccccc4)c3)cc2O)c1Oc1ccc(F)cc1`, the Potency was inconclusive [cytotoxic, single point].
In the case of `C=CCc1c(Cl)nc(C)nc1NCc1ccccc1`, the Potency is reported as inconclusive [cytotoxic, single point].
For `CSC1=NC=C(C#N)C2=NC(c3c(Cl)cccc3Cl)NN12` (stereo not drawn), the Potency was inconclusive [cytotoxic, single point].
With `COc1cc(OC)c(-c2oc3ccccc3c(=O)c2O)c(OC)c1` the Potency was inconclusive [cytotoxic, single point].
With `Cc1ccc(-c2ccc(/C=N/NC(=O)CN3CCOCC3)o2)cc1[N+](=O)[O-]` the Potency was inconclusive [cytotoxic, single point].
In the case of `CCOC(=O)[C@]12CCC=C1N(Cc1ccc3c(c1)OCO3)C(=O)[C@H](CC(=O)NCc1ccccc1)C2`, the Potency is reported as active: 23.1 µM.
For `O=C(Nc1nc2ccccc2[nH]1)C1CC1`, the Potency was inconclusive [cytotoxic, partial curve].
For `CC(C)N=C(N)N=C(N)Nc1ccc(Cl)cc1`, the Potency was inconclusive [cytotoxic, partial curve].
In the case of `Cc1csc(NC(=O)CSc2nc(=O)[nH]c3c2CCCC3)n1`, the Potency is reported as “inactive”.
In the case of `Cc1cccc(-n2c(SCC(=O)Nc3ccc4c(c3)OCO4)nnc2-c2ccoc2C)c1`, the Potency is reported as inconclusive [cytotoxic, single point].
